*1 amine or outer side, *2 acyl side, *3 side chain or, on linkers, in order; H or OH if unused. Where a SMILES comes first, the peptide text is derived from it. Side-chain parts run from the residue outwards. [ ]: non-standard residue; d: D form. The star is where a group is joined. ξ: configuration not given here. Pro(trans-4-NH2) = O=C([C@@H]1C[C@@H](N[*:3])CN1[*:1])[*:2]; Pro(3S,4R-methano) = O=C(O)[C@H]1NC[C@@H]2C[C@@H]21; ξPro(4R-NH2) = O=C(C1C[C@@H](N[*:3])CN1[*:1])[*:2]; Naphthalene1sulfonyl = O=S(=O)(c1cccc2ccccc12)*; Pro(5R-Ph) = O=C(O)[C@@H]1CC[C@H](c2ccccc2)N1; 2Naphthylsulfonyl = O=S(=O)(c1ccc2ccccc2c1)*; Gly(1-Me-cHex) = CC1([C@H](N)C(=O)O)CCCCC1; Benzoyl(3-COOH) = O=C(O)c1cccc(C(=O)*)c1; Benzoyl(4-COOH) = O=C(O)c1ccc(C(=O)*)cc1; Pro(4,4-Me2) = CC1(C)CN[C@H](C(=O)O)C1; Pro(4S-Me) = C[C@@H]1CN[C@H](C(=O)O)C1; Pro(5S-Me) = C[C@H]1CC[C@@H](C(=O)O)N1; X25 = O=C(O)c1c(F)c(F)c(F)c(F)c1C(=O)*; X12 = CCC[C@H](N[*:1])C(=O)C(=O)[*:2]; Cyclohexanecarbonyl = O=C(C1CCCCC1)*; Isobutyloxycarbonyl = CC(C)COC(=O)*; NH(1-naphthyl) = c1ccc2c(N*)cccc2c1; Benzyl(3,4-Cl2) = Clc1ccc(C*)cc1Cl; cisHyp = O=C(O)[C@@H]1C[C@H](O)CN1; X15 = CC(=O)Nc1ccc(S(=O)(=O)*)cc1; X4 = CCCCC(N[*:1])C(=O)C(=O)[*:2]; Hyp = O=C(O)[C@@H]1C[C@@H](O)CN1; X2 = CCCC(N[*:1])C(=O)C(=O)[*:2]; X61 = O=C(O)[C@@H]1CCCCC1C(=O)*; X62 = O=S(=O)(c1cccc2cccnc12)*; Tic = O=C(O)[CH]1Cc2ccccc2CN1; Chg = N[CH](C(=O)O)C1CCCCC1; Phg = N[CH](C(=O)O)c1ccccc1; Suc = O=C(CCC(=O)[*:2])[*:1]; Tle = CC(C)(C)[C@H](N)C(=O)O; X51 = O=C(O)C1CCC(C(=O)*)CC1; X39 = O=C(O)C1(C(=O)*)CC1; ξChg = NC(C(=O)O)C1CCCCC1; ξPhg = NC(C(=O)O)c1ccccc1; MeOSuc = COC(=O)CCC(=O)*; Orn = NCCC[C@H](N)C(=O)O; PhAc = O=C(Cc1ccccc1)*; ξNle = CCCCC(N)C(=O)O; CO = O=C([*:1])[*:2]; Bz = O=C(c1ccccc1)*; Bn = c1ccc(C*)cc1; ξS = NC(CO)C(=O)O; tBu = CC(C)(C)*
biological target: HCV NS3/NS4A protease (strain 1a) (Hepatitis C virus genotype 1a, UniProt P27958); assay: biochemical; conditions: Compounds prepared by Solid Phase Synthesis, Table 3; read-out: Ki* CLASS

SMILES	Ki
CCCC(NC(=O)C1Cc2ccccc2CN1C(=O)C(NC(=O)OCC(C)C)C1CCCCC1)C(=O)C(=O)NCC(=O)NC(C(N)=O)c1ccccc1 (centres unmarked) (Isobutyloxycarbonyl-[Chg][Tic][X2]G[Phg]-NH2; configuration not given here)	101 to 1000 nM
CCCC(NC(=O)[C@@H]1C[C@@H](OCc2ccccc2)CN1C(=O)[C@H](CCCNC(C)=O)NC(=O)OCC(C)C)C(=O)C(=O)NCC(=O)N[C@H](C(N)=O)c1ccccc1 (some centres unmarked) (Isobutyloxycarbonyl-[Orn](Ac)[Hyp](Bn)[X2]G[Phg]-NH2)	> 1000 nM
CCCC(NC(=O)[C@@H]1C[C@@H](OCc2ccccc2)CN1C(=O)[C@H](CCCNC(=O)c1cccc(C(=O)O)c1)NC(=O)OCC(C)C)C(=O)C(=O)NCC(=O)N[C@H](C(N)=O)c1ccccc1 (some centres unmarked) (Isobutyloxycarbonyl-[Orn](Benzoyl(3-COOH))[Hyp](Bn)[X2]G[Phg]-NH2)	101 to 1000 nM
CCCC(NC(=O)[C@@H]1C[C@@H](OCc2ccccc2)CN1C(=O)[C@H](CCCNC(=O)c1ccc(C(=O)O)cc1)NC(=O)OCC(C)C)C(=O)C(=O)NCC(=O)N[C@H](C(N)=O)c1ccccc1 (some centres unmarked) (Isobutyloxycarbonyl-[Orn](Benzoyl(4-COOH))[Hyp](Bn)[X2]G[Phg]-NH2)	101 to 1000 nM
CCCC(NC(=O)[C@@H]1C[C@@H](OCc2ccccc2)CN1C(=O)[C@H](CCCNC(=O)c1ccccc1)NC(=O)OCC(C)C)C(=O)C(=O)NCC(=O)N[C@H](C(N)=O)c1ccccc1 (some centres unmarked) (Isobutyloxycarbonyl-[Orn](Bz)[Hyp](Bn)[X2]G[Phg]-NH2)	> 1000 nM
CCCC(NC(=O)[C@@H]1C[C@@H](OCc2ccccc2)CN1C(=O)[C@H](CCCNC(=O)C1CCCCC1)NC(=O)OCC(C)C)C(=O)C(=O)NCC(=O)N[C@H](C(N)=O)c1ccccc1 (some centres unmarked) (Isobutyloxycarbonyl-[Orn](Cyclohexanecarbonyl)[Hyp](Bn)[X2]G[Phg]-NH2)	> 1000 nM
CCCC(NC(=O)[C@@H]1C[C@@H](OCc2ccccc2)CN1C(=O)[C@H](CCCNC(=O)CCC(=O)OC)NC(=O)OCC(C)C)C(=O)C(=O)NCC(=O)N[C@H](C(N)=O)c1ccccc1 (some centres unmarked) (Isobutyloxycarbonyl-[Orn](MeOSuc)[Hyp](Bn)[X2]G[Phg]-NH2)	> 1000 nM
CCCC(NC(=O)[C@@H]1C[C@@H](OCc2ccccc2)CN1C(=O)[C@H](CCCNC(=O)Cc1ccccc1)NC(=O)OCC(C)C)C(=O)C(=O)NCC(=O)N[C@H](C(N)=O)c1ccccc1 (some centres unmarked) (Isobutyloxycarbonyl-[Orn](PhAc)[Hyp](Bn)[X2]G[Phg]-NH2)	> 1000 nM
CCCC(NC(=O)[C@@H]1C[C@@H](OCc2ccccc2)CN1C(=O)[C@H](CCCNC(=O)CCC(=O)O)NC(=O)OCC(C)C)C(=O)C(=O)NCC(=O)N[C@H](C(N)=O)c1ccccc1 (some centres unmarked) (Isobutyloxycarbonyl-[Orn](Suc)[Hyp](Bn)[X2]G[Phg]-NH2)	> 1000 nM
CCCC(NC(=O)[C@@H]1C[C@@H](OCc2ccccc2)CN1C(=O)[C@H](CCCNC(=O)c1c(F)c(F)c(F)c(F)c1C(=O)O)NC(=O)OCC(C)C)C(=O)C(=O)NCC(=O)N[C@H](C(N)=O)c1ccccc1 (some centres unmarked) (Isobutyloxycarbonyl-[Orn](X25)[Hyp](Bn)[X2]G[Phg]-NH2)	> 1000 nM
CCCC(NC(=O)[C@@H]1C[C@@H](OCc2ccccc2)CN1C(=O)[C@H](CCCNC(=O)C1(C(=O)O)CC1)NC(=O)OCC(C)C)C(=O)C(=O)NCC(=O)N[C@H](C(N)=O)c1ccccc1 (some centres unmarked) (Isobutyloxycarbonyl-[Orn](X39)[Hyp](Bn)[X2]G[Phg]-NH2)	> 1000 nM
CCCC(NC(=O)[C@@H]1C[C@@H](OCc2ccccc2)CN1C(=O)[C@H](CCCNC(=O)C1CCC(C(=O)O)CC1)NC(=O)OCC(C)C)C(=O)C(=O)NCC(=O)N[C@H](C(N)=O)c1ccccc1 (some centres unmarked) (Isobutyloxycarbonyl-[Orn](X51)[Hyp](Bn)[X2]G[Phg]-NH2)	> 1000 nM
CCCC(NC(=O)[C@@H]1C[C@@H](OCc2ccccc2)CN1C(=O)[C@H](CCCNC(=O)C1CCCC[C@H]1C(=O)O)NC(=O)OCC(C)C)C(=O)C(=O)NCC(=O)N[C@H](C(N)=O)c1ccccc1 (some centres unmarked) (Isobutyloxycarbonyl-[Orn](X61)[Hyp](Bn)[X2]G[Phg]-NH2)	> 1000 nM
CCCC(NC(=O)[C@@H]1C[C@@H](OC(C)(C)C)CN1C(=O)[C@@H](NC(=O)OCC(C)C)C(C)(C)C)C(=O)C(=O)NCC(=O)N[C@H](C(N)=O)c1ccccc1 (some centres unmarked) (Isobutyloxycarbonyl-[Tle][Hyp](tBu)[X2]G[Phg]-NH2)	101 to 1000 nM
CCCCC(NC(=O)[C@@H]1C[C@@H](OC(C)(C)C)CN1C(=O)[C@@H](NC(=O)OCC(C)C)C(C)(C)C)C(=O)C(=O)NCC(=O)N[C@H](C(N)=O)c1ccccc1 (some centres unmarked) (Isobutyloxycarbonyl-[Tle][Hyp](tBu)[X4]G[Phg]-NH2)	101 to 1000 nM
CCCCC(NC(=O)CNC(=O)C(=O)C(CCC)NC(=O)[C@@H]1C[C@@H](OCc2ccc(Cl)c(Cl)c2)CN1C(=O)C(NC(=O)OCC(C)C)C1CCCCC1)C(N)=O (some centres unmarked) (Isobutyloxycarbonyl-[ξChg][Hyp](Benzyl(3,4-Cl2))[X2]G[ξNle]-NH2)	101 to 1000 nM
CCCC(NC(=O)[C@@H]1C[C@@H](OCc2ccc(Cl)c(Cl)c2)CN1C(=O)C(NC(=O)OCC(C)C)C1CCCCC1)C(=O)C(=O)NCC(=O)NC(C(N)=O)c1ccccc1 (some centres unmarked) (Isobutyloxycarbonyl-[ξChg][Hyp](Benzyl(3,4-Cl2))[X2]G[ξPhg]-NH2)	1 to 100 nM
CCCC(NC(=O)[C@@H]1C[C@@H](OCc2ccc(Cl)c(Cl)c2)CN1C(=O)C(NC(=O)OCC(C)C)C1CCCCC1)C(=O)C(=O)NCC(=O)NC(COC(C)(C)C)C(N)=O (some centres unmarked) (Isobutyloxycarbonyl-[ξChg][Hyp](Benzyl(3,4-Cl2))[X2]G[ξS](tBu)-NH2)	101 to 1000 nM

same assay, conditions: Table 4; HCV NS3/NS4A protease, spectrophotometric assay, 30° C., pH 6.5; read-out: Ki* Range

SMILES	Ki
CCC[C@H](NC(=O)[C@@H]1C[C@H](C)CN1C(=O)[C@@H](NC(=O)OCC(C)C)C1CCCCC1)C(=O)C(=O)NCC(=O)N[C@H](C(=O)N(C)C)c1ccccc1 (Isobutyloxycarbonyl-[Chg][Pro(4S-Me)][X12]G[Phg]-NMe2)	1 to 100 nM
CCCC(NC(=O)[C@@H]1CC[C@H](c2ccccc2)N1C(=O)[C@@H](NC(=O)OCC(C)C)C1CCCCC1)C(=O)C(=O)NCC(=O)NC(C(=O)O)c1ccccc1 (stereo partly drawn) (Isobutyloxycarbonyl-[Chg][Pro(5R-Ph)][X2]G[ξPhg]-OH)	101 to 1000 nM
CCC[C@H](NC(=O)[C@@H]1CC[C@H](C)N1C(=O)[C@@H](NC(=O)OCC(C)C)C1CCCCC1)C(=O)C(=O)NCC(=O)N[C@H](C(=O)N(C)C)c1ccccc1 (Isobutyloxycarbonyl-[Chg][Pro(5S-Me)][X12]G[Phg]-NMe2)	1 to 100 nM
CCCC(NC(=O)[C@@H]1C[C@@H](NS(=O)(=O)c2cccc3ccccc23)CN1C(=O)[C@@H](NC(=O)OCC(C)C)C1CCCCC1)C(=O)C(=O)NCC(=O)N[C@H](C(N)=O)c1ccccc1 (stereo partly drawn) (Isobutyloxycarbonyl-[Chg][Pro(trans-4-NH2)](Naphthalene1sulfonyl)[X2]G[Phg]-NH2)	101 to 1000 nM
CCCC(NC(=O)[C@@H]1C[C@@H](NS(=O)(=O)c2cccc3cccnc23)CN1C(=O)[C@@H](NC(=O)OCC(C)C)C1CCCCC1)C(=O)C(=O)NCC(=O)N[C@H](C(N)=O)c1ccccc1 (stereo partly drawn) (Isobutyloxycarbonyl-[Chg][Pro(trans-4-NH2)](X62)[X2]G[Phg]-NH2)	101 to 1000 nM
CCCC(NC(=O)C1C[C@@H](NS(=O)(=O)c2ccc3ccccc3c2)CN1C(=O)[C@@H](NC(=O)OCC(C)C)C1CCCCC1)C(=O)C(=O)NCC(=O)N[C@H](C(N)=O)c1ccccc1 (stereo partly drawn) (Isobutyloxycarbonyl-[Chg][ξPro(4R-NH2)](2Naphthylsulfonyl)[X2]G[Phg]-NH2)	101 to 1000 nM
CCCC(NC(=O)C1C[C@@H](NS(=O)(=O)c2ccc(NC(C)=O)cc2)CN1C(=O)[C@@H](NC(=O)OCC(C)C)C1CCCCC1)C(=O)C(=O)NCC(=O)N[C@H](C(N)=O)c1ccccc1 (stereo partly drawn) (Isobutyloxycarbonyl-[Chg][ξPro(4R-NH2)](X15)[X2]G[Phg]-NH2)	1 to 100 nM
CCCC(NC(=O)C1C[C@@H](NC(=O)Nc2cccc3ccccc23)CN1C(=O)[C@@H](NC(=O)OCC(C)C)C1CCCCC1)C(=O)C(=O)NCC(=O)N[C@H](C(N)=O)c1ccccc1 (stereo partly drawn) (Isobutyloxycarbonyl-[Chg][ξPro(4R-NH2)]([CO-NH(1-naphthyl)])[X2]G[Phg]-NH2)	101 to 1000 nM
CCC[C@H](NC(=O)[C@@H]1CC(C)(C)CN1C(=O)[C@@H](NC(=O)OCC(C)C)C1(C)CCCCC1)C(=O)C(=O)NCC(=O)N[C@H](C(=O)N(C)C)c1ccccc1 (Isobutyloxycarbonyl-[Gly(1-Me-cHex)][Pro(4,4-Me2)][X12]G[Phg]-NMe2)	1 to 100 nM
CCC[C@H](NC(=O)[C@@H]1[C@H]2C[C@H]2CN1C(=O)[C@@H](NC(=O)OCC(C)C)C(C)(C)C)C(=O)C(=O)NCC(=O)N[C@H](C(=O)N(C)C)c1ccccc1 (Isobutyloxycarbonyl-[Tle][Pro(3S,4R-methano)][X12]G[Phg]-NMe2)	1 to 100 nM
CCC[C@H](NC(=O)[C@@H]1CC(C)(C)CN1C(=O)[C@@H](NC(=O)OCC(C)C)C(C)(C)C)C(=O)C(=O)NCC(=O)NC(C(=O)N(C)C)c1ccccc1 (some centres unmarked) (Isobutyloxycarbonyl-[Tle][Pro(4,4-Me2)][X12]G[ξPhg]-NMe2)	1 to 100 nM
CCC[C@H](NC(=O)[C@@H]1C[C@H](C)CN1C(=O)[C@@H](NC(=O)OCC(C)C)C(C)(C)C)C(=O)C(=O)NCC(=O)N[C@H](C(=O)N(C)C)c1ccccc1 (Isobutyloxycarbonyl-[Tle][Pro(4S-Me)][X12]G[Phg]-NMe2)	1 to 100 nM
CCC[C@H](NC(=O)[C@@H]1CC[C@H](C)N1C(=O)[C@@H](NC(=O)OCC(C)C)C(C)(C)C)C(=O)C(=O)NCC(=O)N[C@H](C(=O)N(C)C)c1ccccc1 (Isobutyloxycarbonyl-[Tle][Pro(5S-Me)][X12]G[Phg]-NMe2)	1 to 100 nM

same assay, conditions: Table 5; HCV NS3/NS4A protease, spectrophotometric assay, 30° C., pH 6.5; read-out: Ki* Range

SMILES	Ki
CCCC(NC(=O)[C@@H]1C[C@H](OC(C)(C)C)CN1C(=O)[C@@H](NC(=O)OCC(C)C)C1CCCCC1)C(=O)C(=O)NCC(=O)N[C@H](C(=O)N(C)C)c1ccccc1 (some centres unmarked) (Isobutyloxycarbonyl-[Chg][cisHyp](tBu)[X2]G[Phg]-NMe2)	> 1000 nM

— patent US7592316B2, “Peptides as NS3-serine protease inhibitors of hepatitis C virus” (Schering Corporation, priority 2000, dated 2009)
